# This is one part of the list.
# B1: Gal 3C (Homo sapiens), P17931 (protein)
# chain: YGAPAGPLIVPYNLPLPGGVVPRMLITILGTVKPNANRIALDFQRGNDVAFHFNPRFNENNRRVIVCNTKLDNNWGREERQSVFPFESGKPFKIQVLVEPDHFKVAVNDAHLLQYNHRVKKLNEISKLGISGDIDLTSASYTMI
# What was measured:
# Test in all cases: glycan array binding signal (z-score within array); higher = stronger binding
# Details in all cases: glycan notation: IUPAC condensed, linker removed
# [1] = target: Fuc(a1-2)Gal(b1-4)GlcNAc(b1-3)Gal(b1-4)GlcNAc(b1-2)Man(a1-3)[Fuc(a1-2)Gal(b1-4)GlcNAc(b1-3)Gal(b1-4)GlcNAc(b1-2)Man(a1-6)]Man(b1-4)GlcNAc(b1-4)GlcNAc
# Summary of the method: (§1)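 Arrays were curated from the Consortium for Functional Glycomics database, 3228 in total, and kept only where the protein sequence was available. Binding is expressed as a within-array Z-score. This score was averaged across arrays of the same protein sequence at different concentrations or buffers and across linkers, and negative values can be read as non-binding.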
# [2] = target: Fuc(a1-2)Gal(b1-4)GlcNAc(b1-3)Gal(b1-4)GlcNAc(b1-3)Gal(b1-4)GlcNAc
# Summary of the method: as §1
# [3] = target: Fuc(a1-2)Gal(b1-4)GlcNAc(b1-3)GalNAc
# Summary of the method: as §1
# [4] = target: Fuc(a1-2)Gal(b1-4)GlcNAc(b1-3)[Fuc(a1-2)Gal(b1-4)GlcNAc(b1-6)]GalNAc
# Summary of the method: as §1
# [5] = target: Fuc(a1-2)Gal(b1-4)GlcNAc(b1-3)[Fuc(a1-3)[Gal(b1-4)]GlcNAc(b1-6)]Gal(b1-4)Glc
# Summary of the method: as §1
# [6] = target: Fuc(a1-2)Gal(b1-4)GlcNAc(b1-6)GalNAc
# Summary of the method: as §1
# [7] = target: Fuc(a1-2)Gal(b1-4)GlcNAc6S
# Summary of the method: as §1
# [8] = target: Fuc(a1-2)Gal(b1-4)[Fuc(a1-3)]GlcNAc
# Summary of the method: as §1
# [9] = target: Fuc(a1-2)Gal(b1-4)[Fuc(a1-3)]GlcNAc(b1-2)Man(a1-3)[Fuc(a1-2)Gal(b1-4)[Fuc(a1-3)]GlcNAc(b1-2)Man(a1-6)]Man(b1-4)GlcNAc(b1-4)[Fuc(a1-6)]GlcNAc
# Summary of the method: as §1
# [10] = target: Fuc(a1-2)Gal(b1-4)[Fuc(a1-3)]GlcNAc(b1-2)[Fuc(a1-2)Gal(b1-4)[Fuc(a1-3)]GlcNAc(b1-4)]Man(a1-3)[Fuc(a1-2)Gal(b1-4)[Fuc(a1-3)]GlcNAc(b1-2)Man(a1-6)]Man(b1-4)GlcNAc(b1-4)GlcNAc
# Summary of the method: as §1
# [11] = target: Fuc(a1-2)Gal(b1-4)[Fuc(a1-3)]GlcNAc(b1-3)Gal(b1-4)[Fuc(a1-3)]GlcNAc
# Summary of the method: as §1
# [12] = target: Fuc(a1-2)Gal(b1-4)[Fuc(a1-3)]GlcNAc(b1-3)Gal(b1-4)[Fuc(a1-3)]GlcNAc(b1-3)Gal(b1-4)[Fuc(a1-3)]GlcNAc
# Summary of the method: as §1
# [13] = target: Fuc(a1-2)Gal(b1-4)[Fuc(a1-3)]GlcNAc(b1-3)GalNAc
# Summary of the method: as §1
# [14] = target: Fuc(a1-2)Gal(b1-4)[Fuc(a1-3)]GlcNAc(b1-3)[Neu5Ac(a2-6)Gal(b1-4)GlcNAc(b1-6)]Gal(b1-4)Glc
# Summary of the method: as §1
# [15] = target: Fuc(a1-2)Gal3S(b1-4)GlcNAc
# Summary of the method: as §1
# [16] = target: Fuc(a1-2)Gal6S(b1-3)GlcNAc
# Summary of the method: as §1
# [17] = target: Fuc(a1-2)Gal6S(b1-3)GlcNAc6S
# Summary of the method: as §1
# [18] = target: Fuc(a1-2)Gal6S(b1-4)Glc
# Summary of the method: as §1
# [19] = target: Fuc(a1-2)Gal6S(b1-4)Glc6S
# Summary of the method: as §1
# [20] = target: Fuc(a1-2)[Gal(a1-3)]Gal
# Summary of the method: as §1
# [21] = target: Fuc(a1-2)[Gal(a1-3)]Gal(b1-3)GalNAc
# Summary of the method: as §1
# [22] = target: Fuc(a1-2)[Gal(a1-3)]Gal(b1-3)GalNAc(b1-3)Gal(a1-4)Gal(b1-4)Glc
# Summary of the method: as §1
# [23] = target: Fuc(a1-2)[Gal(a1-3)]Gal(b1-3)GlcNAc
# Summary of the method: as §1
# [24] = target: Fuc(a1-2)[Gal(a1-3)]Gal(b1-3)GlcNAc(b1-2)Man(a1-3)[Fuc(a1-2)[Gal(a1-3)]Gal(b1-3)GlcNAc(b1-2)Man(a1-6)]Man(b1-4)GlcNAc(b1-4)GlcNAc
# Summary of the method: as §1
# [25] = target: Fuc(a1-2)[Gal(a1-3)]Gal(b1-3)GlcNAc(b1-2)Man(a1-3)[Fuc(a1-2)[Gal(a1-3)]Gal(b1-3)GlcNAc(b1-2)Man(a1-6)]Man(b1-4)GlcNAc(b1-4)[Fuc(a1-6)]GlcNAc
# Summary of the method: as §1
# [26] = target: Fuc(a1-2)[Gal(a1-3)]Gal(b1-3)GlcNAc(b1-3)GalNAc
# Summary of the method: as §1
# [27] = target: Fuc(a1-2)[Gal(a1-3)]Gal(b1-3)GlcNAc(b1-6)GalNAc
# Summary of the method: as §1
# [28] = target: Fuc(a1-2)[Gal(a1-3)]Gal(b1-4)Glc
# Summary of the method: as §1
# [29] = target: Fuc(a1-2)[Gal(a1-3)]Gal(b1-4)GlcNAc
# Summary of the method: as §1
# [30] = target: Fuc(a1-2)[Gal(a1-3)]Gal(b1-4)GlcNAc(b1-2)Man
# Summary of the method: as §1
binder,measurement,setting,value
B1,glycan array binding signal (z-score),[1],1.68
same,glycan array binding signal (z-score),[2],2.05
same,glycan array binding signal (z-score),[3],-0.242
same,glycan array binding signal (z-score),[4],-0.342
same,glycan array binding signal (z-score),[5],-0.284
same,glycan array binding signal (z-score),[6],-0.295
same,glycan array binding signal (z-score),[7],-0.313
same,glycan array binding signal (z-score),[8],-0.318
same,glycan array binding signal (z-score),[9],-0.215
same,glycan array binding signal (z-score),[10],-0.232
same,glycan array binding signal (z-score),[11],-0.198
same,glycan array binding signal (z-score),[12],-0.175
same,glycan array binding signal (z-score),[13],-0.183
same,glycan array binding signal (z-score),[14],-0.296
same,glycan array binding signal (z-score),[15],-0.307
same,glycan array binding signal (z-score),[16],-0.329
same,glycan array binding signal (z-score),[17],-0.167
same,glycan array binding signal (z-score),[18],-0.193
same,glycan array binding signal (z-score),[19],-0.287
same,glycan array binding signal (z-score),[20],-0.224
same,glycan array binding signal (z-score),[21],-0.218
same,glycan array binding signal (z-score),[22],-0.305
same,glycan array binding signal (z-score),[23],0.604
same,glycan array binding signal (z-score),[24],0.151
same,glycan array binding signal (z-score),[25],-0.222
same,glycan array binding signal (z-score),[26],-0.161
same,glycan array binding signal (z-score),[27],-0.263
same,glycan array binding signal (z-score),[28],-0.106
same,glycan array binding signal (z-score),[29],2.41
same,glycan array binding signal (z-score),[30],0.736
